{"source": "patent US7595313B2", "about": "“Nitric oxide donating diuretic compounds, compositions and methods of use” (NicOx, S.A., priority 2005, dated 2009)", "tested_on": "contractions elicited by 100 nM angiotensin II in isolated rat aorta", "assay": "Angiotensin II-induced contractions in rat aorta", "details": "for inhibition at 1 µM / inhibition at 10 µM: Rattus norvegicus, read-out: % INHIBITION of angiotensin II-induced contraction; for inhibition of angiotensin-II-induced contractions (in words): 100 nM angiotensin II, isolated rat aorta"}
{"smiles": "NS(=O)(=O)c1cc2c(cc1Cl)NC(CCCCO)NS2(=O)=O", "note": "(centres unmarked) [Example 26, 2H-1,2,4-Benzothiadiazine-7-sulfonamide, 6-chloro-3,4-dihydro-3-(4-hydroxybutyl)-, 1,1-dioxide]", "values": [{"measurement": "inhibition at 1 µM", "value": 8, "unit": "%"}]}
{"smiles": "NS(=O)(=O)c1cc2c(cc1Cl)NC(CCCCO[N+](=O)[O-])NS2(=O)=O", "note": "(centres unmarked) [Example 17b, 2H-1,2,4-Benzothiadiazine-7-sulfonamide, 6-chloro-3,4-dihydro-3-[4-(nitrooxy)butyl]-, 1,1-dioxide]", "values": [{"measurement": "inhibition of angiotensin-II-induced contractions (in words)", "value": "significant inhibition"}, {"measurement": "inhibition at 1 µM", "value": 36, "unit": "%"}, {"measurement": "inhibition at 10 µM", "value": 58, "unit": "%"}]}
{"smiles": "NS(=O)(=O)c1cc2c(cc1Cl)NCN(CCO[N+](=O)[O-])S2(=O)=O", "note": "[Example 51, 2H-1,2,4-Benzothiadiazine-7-sulfonamide, 6-chloro-3,4-dihydro-2-[2-(nitrooxy)ethyl]-, 1,1-dioxide]", "values": [{"measurement": "inhibition of angiotensin-II-induced contractions (in words)", "value": "significant inhibition"}, {"measurement": "inhibition at 1 µM", "value": 51, "unit": "%"}]}
{"smiles": "NS(=O)(=O)c1cc2c(cc1Cl)NCNS2(=O)=O", "note": "[HCT, hydrochlorothiazide, reference compound]", "values": [{"measurement": "inhibition at 1 µM", "value": 0, "unit": "%"}, {"measurement": "inhibition at 10 µM", "value": 12, "unit": "%"}]}
